Measured values reported in PubChem BioAssay AID588342 (National Center for Advancing Translational Sciences (NCATS), 2011).
Out of some 360,000 compounds screened, about 25,000 (6.9%) were called active. The inconclusive results got no clear call from the source; some entries with a clear call stand among them for comparison. Calls come from the whole dose curve; as a rule, active = well fitted inhibition curve with a large enough effect; inconclusive = small, poorly fitted or top-dose-only effect; inactive = flat fitted curve, though single readings scatter. A potency beside an inconclusive call is a rough fit, not a confirmed value.

Target: Luciferin 4-monooxygenase (Photinus pyralis) (UniProt P08659)
UniProt P08659, sequence (P08659 whole entry, looked up): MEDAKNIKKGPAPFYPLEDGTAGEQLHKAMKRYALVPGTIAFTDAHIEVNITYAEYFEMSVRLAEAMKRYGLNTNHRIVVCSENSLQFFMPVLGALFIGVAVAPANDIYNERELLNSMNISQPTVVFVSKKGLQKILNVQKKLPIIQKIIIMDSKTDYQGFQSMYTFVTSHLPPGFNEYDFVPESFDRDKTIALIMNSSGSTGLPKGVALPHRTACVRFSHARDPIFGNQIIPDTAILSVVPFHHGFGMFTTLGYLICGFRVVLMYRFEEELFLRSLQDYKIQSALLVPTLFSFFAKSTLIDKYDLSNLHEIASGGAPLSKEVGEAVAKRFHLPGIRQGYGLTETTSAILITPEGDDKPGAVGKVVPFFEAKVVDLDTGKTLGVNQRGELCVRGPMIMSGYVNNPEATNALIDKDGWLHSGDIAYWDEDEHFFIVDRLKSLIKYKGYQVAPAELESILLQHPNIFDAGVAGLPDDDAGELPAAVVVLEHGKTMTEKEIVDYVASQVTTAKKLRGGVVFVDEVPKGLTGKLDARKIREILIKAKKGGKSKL
Experiment: qHTS profiling assay for firefly luciferase inhibitor/activator using purifed enzyme and Km concentrations of substrates (counterscreen for miR-21 project); note: nearly all actives have a fitted effect of over 55% in size
Details: purified FLuc, luminescence inhibition; series mostly up to 57.5 µM
Method in brief: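 Biochemical qHTS of compounds, final roughly 60 µM downward over six points, against 10 nM purified firefly luciferase using Km concentrations of substrates (10 uM D-luciferin, 10 uM ATP) in Tris acetate pH 7.5 buffer; luminescence output.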
Potency is the fitted concentration of half-maximal effect; tags give direction and shape of the fitted curve.

**Q.** Which Potency does the source give for `COc1ccc2oc(C(=O)OCC(=O)N3CCCCC3)c(C)c2c1` here?
**A.** Its Potency is inconclusive: 26.9 µM [inhibitor, single point].

**Q.** How did the Potency turn out when `COc1ccc(-n2cccc2C=O)cc1` was run?
**A.** Its Potency is “inactive”.

**Q.** `Cc1ccc2[nH]c(=O)c3cc(C(=O)N(C)Cc4ccco4)sc3c2c1` was tested. Which Potency did it give?
**A.** Its Potency is inconclusive: 15.1 µM [inhibitor, partial curve].

**Q.** How did the Potency turn out when `CC(C)=CCC/C(C)=C/COc1ccc2ccc(=O)oc2c1` was run?
**A.** Its Potency is inconclusive: 37.9 µM [inhibitor, partial curve, poor fit].

**Q.** Which Potency does the source give for `Cc1cccc(N2CCN(CCCNC(=O)c3nnc(Cc4c(F)cccc4Cl)o3)CC2C)c1` (stereo not drawn) here?
**A.** The Potency was “inactive”.

**Q.** How did the Potency turn out when `COc1ccccc1CCNC(=O)c1ccc(NC(=O)CC2SC(N3CCCCC3)=NC2=O)cc1` (stereo not drawn) was run?
**A.** The Potency was “inactive”.

**Q.** For `COC(=O)c1ccc(N2CCCCC2)c(N)c1`, which Potency is on record?
**A.** Its Potency is active: 10.7 µM.

**Q.** For `Fc1cc(Br)ccc1NC(=S)Nc1ccccc1`, which Potency is on record?
**A.** Its Potency is active: 19 µM.

**Q.** `CC(C)c1ccc(NC(=O)N2CCc3ccccc3C2)cc1` was tested. Which Potency did it give?
**A.** The Potency was active: 10.7 µM.

**Q.** For `Cc1cc(C)n(CCc2nc(-c3ccc(C)o3)cs2)n1`, which Potency is on record?
**A.** Its Potency is inconclusive: 37.9 µM [inhibitor, partial curve, poor fit].

**Q.** For `O=C(Oc1coc(CSc2ncccn2)cc1=O)c1cccs1`, which Potency is on record?
**A.** Its Potency is inconclusive: 26.9 µM [inhibitor, single point].

**Q.** For `O=C(c1ccco1)N1CCN(c2nc3c(Cl)cccc3s2)CC1`, which Potency is on record?
**A.** The Potency was inconclusive: 26.9 µM [inhibitor, single point].

**Q.** With `CC(Nc1ccc2c(c1)OCCO2)C(=O)N1CCc2ccccc21` (stereo not drawn) as the molecule, how does the Potency read?
**A.** The Potency was active: 26.9 µM.

**Q.** How did the Potency turn out when `COC(=O)Cc1c(C)c2ccc(OCC(=O)N3CCCC(C)C3)c(C)c2oc1=O` (stereo not drawn) was run?
**A.** The Potency was “inactive”.

**Q.** Which Potency does the source give for `O=C1/C(=C/c2cccs2)SC(=S)N1c1cccc(O)c1` here?
**A.** Its Potency is inconclusive: 37.9 µM [inhibitor, single point].

**Q.** How did the Potency turn out when `Cc1ccccc1C(=O)N1CCc2cc(-c3nc(NC(=O)Cc4ccc5c(c4)OCO5)sc3C)ccc21` was run?
**A.** The Potency was “inactive”.

**Q.** For `COc1ccccc1OCC(=O)Nc1nc(C)c(C)s1`, which Potency is on record?
**A.** Its Potency is active: 8.49 µM.

**Q.** With `Cc1ccc(CN2C(=O)/C(=C3\SC(N4CCOCC4)=NC3=O)c3cc(Br)ccc32)cc1` as the molecule, how does the Potency read?
**A.** The Potency was inconclusive: 21.3 µM [inhibitor, partial curve, poor fit].

**Q.** `COc1ccc(CNC(=O)C2CCN(C(=O)N3CC(C)Oc4ccc(C)cc43)CC2)cc1` (stereo not drawn) was tested. Which Potency did it give?
**A.** Its Potency is inconclusive: 26.9 µM [inhibitor, partial curve].

**Q.** Which Potency does the source give for `CS(=O)(=O)Cc1ccc(C(=O)NC2CCCc3ccccc32)cc1` (stereo not drawn) here?
**A.** Its Potency is “inactive”.

**Q.** `COc1cccc(CNC(=O)CN2C(=O)COc3ccc(S(=O)(=O)Nc4ccccc4)cc32)c1` was tested. Which Potency did it give?
**A.** Its Potency is “inactive”.

**Q.** How did the Potency turn out when `C#CCSc1nnc(-c2c[nH]c3ccccc23)n1C` was run?
**A.** Its Potency is inconclusive: 37.9 µM [inhibitor, partial curve, poor fit].

**Q.** For `Cc1snc(SCC(=O)c2ccc(Cl)cc2)c1C#N`, which Potency is on record?
**A.** The Potency was inconclusive: 23.9 µM [inhibitor, single point].

**Q.** `Clc1cccc(-c2ccc(C=Nc3ccc(N4CCOCC4)cc3)o2)c1Cl` was tested. Which Potency did it give?
**A.** Its Potency is active: 3.38 µM.

**Q.** `Cc1nn(C)c(C)c1NC(=O)c1ccccc1NC(=O)Nc1ccccc1` was tested. Which Potency did it give?
**A.** Its Potency is active: 16.9 µM.

**Q.** For `COc1ccc(-c2nc(Cn3c(SCc4ccccc4F)nc4ccncc43)c(C)o2)cc1OC`, which Potency is on record?
**A.** The Potency was inconclusive: 15.1 µM [inhibitor, partial curve].

**Q.** Which Potency does the source give for `CN(C)c1ccc(/C=N/NC(=O)c2ccccc2Cl)cc1` here?
**A.** The Potency was active: 16.9 µM.

**Q.** How did the Potency turn out when `CCN(C(=O)c1ccc(S(=O)(=O)N2CCOCC2)cc1)C1CCS(=O)(=O)C1` (stereo not drawn) was run?
**A.** Its Potency is “inactive”.

**Q.** With `C=CCn1c(C)cc(C(=O)COC(=O)[C@@H](NC(=O)c2ccccc2Cl)C(C)C)c1C` as the molecule, how does the Potency read?
**A.** Its Potency is active: 0.151 µM.

**Q.** With `C/C(=N\NC(=O)c1ccccc1C)c1ccc(NC(=O)c2cccs2)cc1` as the molecule, how does the Potency read?
**A.** The Potency was inconclusive: 26.9 µM [inhibitor, single point].

**Q.** With `COc1ccc(CCNC(=O)CCCn2c(=O)c3cccn3c3cccnc32)c(OC)c1OC` as the molecule, how does the Potency read?
**A.** Its Potency is “inactive”.

**Q.** `Nc1nc(NC(=O)c2ccc(Cl)cc2)nn1-c1ccccc1` was tested. Which Potency did it give?
**A.** Its Potency is active: 19 µM.

**Q.** `OCc1ccc(O)c2ncccc12` was tested. Which Potency did it give?
**A.** The Potency was “inactive”.

**Q.** Which Potency does the source give for `N#CCSc1ccc(-c2nc3ccccc3[nH]2)cn1` here?
**A.** The Potency was active: 12 µM.

**Q.** With `COc1ccc2c(c1)[nH]c1c(N3CCSCC3)ncnc12` as the molecule, how does the Potency read?
**A.** Its Potency is inconclusive: 26.9 µM [inhibitor, partial curve, poor fit].

**Q.** `C=C(C)Cn1cnc2cc(C)c(C)cc21` was tested. Which Potency did it give?
**A.** Its Potency is “inactive”.

**Q.** Which Potency does the source give for `CCOC(=O)NC(=S)Nc1ccc(C(C)(C)C)cc1` here?
**A.** The Potency was inconclusive: 37.9 µM [inhibitor, single point].

**Q.** With `Cc1ccc(/C=C2/SC(=S)N(CCCC(=O)Nc3ccc(O)cc3)C2=O)cc1` as the molecule, how does the Potency read?
**A.** Its Potency is inconclusive: 4.78 µM [inhibitor, partial curve, poor fit].

**Q.** Which Potency does the source give for `Cc1nn(CCOc2ccccc2)c(=O)n1-c1ccc(F)cc1` here?
**A.** Its Potency is inconclusive: 23.9 µM [inhibitor, partial curve, poor fit].

**Q.** How did the Potency turn out when `Cn1c(SCC(=O)c2ccc(F)cc2)nnc1-c1ccccc1Br` was run?
**A.** The Potency was inconclusive: 26.9 µM [inhibitor, partial curve].

**Q.** How did the Potency turn out when `COc1ccc(C)cc1NC(=O)CSc1ccc(-c2ccccn2)nn1` was run?
**A.** Its Potency is inconclusive: 23.9 µM [inhibitor, partial curve, poor fit].

**Q.** With `COc1ccc(/C=N/Nc2nc3ccccc3o2)cc1OC` as the molecule, how does the Potency read?
**A.** Its Potency is inconclusive: 2.39 µM [inhibitor, partial curve, poor fit].

**Q.** For `O=C(Nc1nc2ccc(S(=O)(=O)N3CCCCC3)cc2s1)c1ccncc1`, which Potency is on record?
**A.** The Potency was inconclusive: 26.9 µM [inhibitor, single point].

**Q.** For `Cc1cccc(C(=O)O/N=C(\c2ccccc2)c2cccnc2)c1`, which Potency is on record?
**A.** The Potency was inconclusive: 26.9 µM [inhibitor, single point].

**Q.** With `CCn1cnc2c1c(=O)n(CC(=O)OC(C)C(N)=O)c(=O)n2Cc1ccccc1` (stereo not drawn) as the molecule, how does the Potency read?
**A.** The Potency was “inactive”.

**Q.** For `O=C(COc1ccc(Cl)cc1Cl)N/N=C1\CCCc2ccccc21`, which Potency is on record?
**A.** Its Potency is inconclusive: 15.1 µM [inhibitor, partial curve, poor fit].

**Q.** `O=C(OCC(=O)N1CCN(C(=O)c2ccco2)CC1)c1cc(=O)c2ccccc2o1` was tested. Which Potency did it give?
**A.** Its Potency is “inactive”.

**Q.** How did the Potency turn out when `CCn1cc(CN2CCCC(C(=O)Nc3ccc(-c4nc5ccccc5[nH]4)cc3)C2)c(C)n1` (stereo not drawn) was run?
**A.** The Potency was inconclusive: 30.1 µM [inhibitor, partial curve, poor fit].
